# Laboratory results reported in PubChem BioAssay (Tox21).
# Where “and” joins values, the source holds several entries; their conditions need not be identical. Identical values can stand only once. Inconclusive means that the source gave no clear call. Such entries were picked first, then a sample of the others. For some of these results: Potencies of inconclusive entries are doubtful fits and often do not repeat. Where a structure was tested more than once in an assay, its records may differ in their call. Calls of active or inactive are those of the source. Unless noted, calls follow the shape of the dose curve; as a rule, active = well fitted curve in the direction sought with a large enough effect in the repeat runs; inconclusive = weak or mixed curves; inactive = no such curve, though single readings can be large; an effect the other way counts as inactive or inconclusive.
# Experiments:
# [1] = qHTS assay to identify small molecule antagonists of the TGF-beta/Smad signaling pathway - cell viability counter screen (AID 1346824); also: nearly all actives have a fitted effect of over 50% in size; also: potency is read from the fitted curve at half-maximal effect
# Method in brief: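 Cytotoxicity counter-screen run in the same wells as the beta-lactamase Smad reporter read: CellTiter-Glo luminescence after 30 min at room temperature. HEK 293T SBE-bla cells had 5 hr compound exposure at 37 C with TGF-beta1 (0.25 ng/mL stock).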
# [2] = qHTS assay to identify small molecule agonists of the TGF-beta/Smad signaling pathway (AID 1346859; active = well fitted activation curve with a large enough effect in the signal ratio in the repeat runs, not every such curve was filed as active; inconclusive = weak or mixed curves; the % refers to the signal ratio; also: potency is read from the fitted curve at half-maximal effect; as to activation: % is scaled to controls: 0 for no effect and ±100 for the full control effect); details: SBE-bla HEK293T, TGF-beta/Smad beta-lactamase reporter, 5 h; activation: at 76.8 µM (top of the series)
# Method in brief: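 Dual-wavelength fluorescence (460/530 nm emission) quantified beta-lactamase expression under the Smad binding element in HEK 293T cells following 5 hr compound treatment at 37 C.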
# [3] = qHTS assay to identify small molecule antagonists of the TGF-beta/Smad signaling pathway (AID 1346924; active = well fitted inhibition curve with a large enough effect in the signal ratio in the repeat runs, not every such curve was filed as active; inconclusive = weak or mixed curves; the % refers to the signal ratio; also: potency is read from the fitted curve at half-maximal effect); details: SBE-bla HEK293T, TGF-beta/Smad reporter, beta-lactamase ratio; activity, negative = inhibition: at 76.8 µM (top of the series) unless noted
# Method in brief: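 SBE-bla HEK 293T cells were plated overnight, then received compound in DMSO plus TGF-beta1 (added as a 0.25 ng/mL solution) and were incubated 5 h at 37 C. Beta-lactamase reporter activity was read after 2 h at room temperature with LiveBLAzer B/G FRET substrate (ex 405, em 460/530 nm).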
# [4] = biological target: Nuclear receptor subfamily 1 group I member 2 (Homo sapiens) (UniProt O75469); assay: Human pregnane X receptor (PXR) small molecule agonists, qHTS assay (AID 1346982); also: potency is read from the fitted curve at half-maximal effect; nearly all actives have a fitted effect of over 35% in size
# Method in brief: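 Luciferase signal from ONE-Glo (30 min, room temperature) measured activation of hPXR-driven CYP3A4 reporter expression in PXR-Luc HepG2 cells treated with compounds for 24 hr at 37 C.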
# [5] = Human pregnane X receptor (PXR) small molecule agonists, qHTS cell viability counter screen (AID 1346977); also: % is scaled to controls: 0 for no effect and ±100 for the full control effect; nearly all actives have a fitted effect of over 50% in size
# Method in brief: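 HepG2 cells stably carrying the PXR-Luc reporter are cultured with 5% charcoal-stripped FBS and treated with compounds for 24hr. CellTiter-Fluor is added at 23hr and fluorescence is read after 1hr.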
# [6] = qHTS assay to identify small molecule agonists of the progesterone receptor (PR) signaling pathway - cell viability counter screen (AID 1346799; calls by dose curve; also: nearly all actives have a fitted effect of over 45% in size; also: potency is read from the fitted curve at half-maximal effect; as to activity change, negative = cytotoxicity: % is scaled to controls: 0 for no effect and ±100 for the full control effect)
# Method in brief: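 Viability was scored by ATP luminescence (CellTiter-Glo, 30 min, room temperature) in the same wells used for the reporter readout, after 16 hr compound exposure of PR-UAS-bla HEK293T cells.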
# [7] = biological target: Cytochrome P450 2C9 (Homo sapiens) (UniProt P11712); assay: Cytochrome P450 Family 2 Subfamily C Member 9 (CYP2C9) small molecule antagonists: luciferase reporter qHTS assay (AID 1671198); also: nearly all actives have a fitted effect of over 50% in size; also: potency is read from the fitted curve at half-maximal effect
# Method in brief: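 Enzyme-substrate mix preincubated with compound 10 min at room temperature; reaction started with NADPH regeneration solution, 1 h 37C. Luminescent luciferin product read after 20 min detection reagent.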
# [8] = biological target: Cytochrome P450 2C19 (Homo sapiens) (UniProt P33261); assay: Cytochrome P450 Family 2 Subfamily C Member 19 (CYP2C19) small molecule antagonists: luciferase reporter qHTS assay (AID 1671197); also: nearly all actives have a fitted effect of over 65% in size; also: potency is read from the fitted curve at half-maximal effect
# Method in brief: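 Enzyme-substrate mix with proluciferin substrate (P450-Glo CYP2C19 system) preincubated with compounds 10 min at room temperature; NADPH regeneration solution added, 37C for 1 h; detection reagent stops reaction, luminescence read after 20 min. Ketoconazole positive control.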
# [9] = Caspase-3/7 induction in CHO-K1 cells by small molecules, qHTS cell viability counter screen (AID 1346979); details: CellTiter-Fluor fluorescence, 17 h; activity change, negative = cytotoxicity: at 92.4 µM (top of the series); also: potency is read from the fitted curve at half-maximal effect; nearly all actives have a fitted effect of over 35% in size
# Method in brief: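 Seeding: 1,500 CHO-K1 cells/well. Rest: 5hr, 37C. Treatment: compounds in DMSO, 16hr. Read: CellTiter-Fluor, 1hr, fluorescence.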
# [10] = biological target: Thyrotropin-releasing hormone receptor (Homo sapiens) (UniProt P34981); assay: qHTS assay to identify small molecule agonists of the thyrotropin-releasing hormone receptor (TRHR) signaling pathway (AID 1346891; calls by dose curve; also: potency is read from the fitted curve at half-maximal effect)
# Method in brief: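 Kinetic fluorescence (3 min, 1 s intervals) reported intracellular calcium after compound transfer onto TRHR-Hek293 cells pre-loaded with dye for 2 h at 37 °C.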
# [11] = biological target: Cytochrome P450 2D6 (Homo sapiens) (UniProt P10635); assay: Cytochrome P450 Family 2 Subfamily D Member 6 (CYP2D6) small molecule antagonists: luciferase reporter qHTS assay (AID 1671196); also: potency is read from the fitted curve at half-maximal effect; nearly all actives have a fitted effect of over 50% in size
# Method in brief: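 Read-out is luminescence from luciferin formed by CYP2D6 turnover of a proluciferin substrate, recorded as relative luminescence units. Reactions ran 1 h at room temperature after NADPH regeneration solution was added.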
# [12] = biological target: Thyrotropin-releasing hormone receptor (Homo sapiens) (UniProt P34981); assay: qHTS assay to identify small molecule antagonists of the thyrotropin-releasing hormone receptor (TRHR) signaling pathway (AID 1346877; active = well fitted inhibition curve with a large enough effect in the repeat runs, not every such curve was filed as active; inconclusive = weak or mixed curves; also: % is scaled to controls: 0 for no effect and ±100 for the full control effect)
# Method in brief: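 Intracellular calcium fluorescence, read kinetically every second over 3 min, reports TRH-evoked signalling in HEK293 cells carrying TRHR. Test compounds were added 5 min ahead of a 1 nM TRH challenge.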
# Tags tell the direction and shape of the fitted curve or compound fluorescence and quenching.
# Sequence of UniProt P33261 (P33261 whole entry, looked up): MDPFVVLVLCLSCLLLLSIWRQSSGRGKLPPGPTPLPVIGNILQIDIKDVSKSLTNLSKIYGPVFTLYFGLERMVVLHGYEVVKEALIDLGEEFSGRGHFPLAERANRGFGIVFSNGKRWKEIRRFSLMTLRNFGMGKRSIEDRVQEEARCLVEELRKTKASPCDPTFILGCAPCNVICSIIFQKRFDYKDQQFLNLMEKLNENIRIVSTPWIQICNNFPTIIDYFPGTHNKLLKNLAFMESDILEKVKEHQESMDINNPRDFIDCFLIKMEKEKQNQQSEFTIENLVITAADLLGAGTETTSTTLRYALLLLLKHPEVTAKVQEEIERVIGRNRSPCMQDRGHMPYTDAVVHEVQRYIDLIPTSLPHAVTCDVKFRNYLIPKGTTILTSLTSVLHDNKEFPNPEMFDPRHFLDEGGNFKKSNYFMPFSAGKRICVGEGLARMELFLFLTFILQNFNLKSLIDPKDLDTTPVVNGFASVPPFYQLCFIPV
# Sequence of UniProt P11712 (P11712 whole entry, looked up): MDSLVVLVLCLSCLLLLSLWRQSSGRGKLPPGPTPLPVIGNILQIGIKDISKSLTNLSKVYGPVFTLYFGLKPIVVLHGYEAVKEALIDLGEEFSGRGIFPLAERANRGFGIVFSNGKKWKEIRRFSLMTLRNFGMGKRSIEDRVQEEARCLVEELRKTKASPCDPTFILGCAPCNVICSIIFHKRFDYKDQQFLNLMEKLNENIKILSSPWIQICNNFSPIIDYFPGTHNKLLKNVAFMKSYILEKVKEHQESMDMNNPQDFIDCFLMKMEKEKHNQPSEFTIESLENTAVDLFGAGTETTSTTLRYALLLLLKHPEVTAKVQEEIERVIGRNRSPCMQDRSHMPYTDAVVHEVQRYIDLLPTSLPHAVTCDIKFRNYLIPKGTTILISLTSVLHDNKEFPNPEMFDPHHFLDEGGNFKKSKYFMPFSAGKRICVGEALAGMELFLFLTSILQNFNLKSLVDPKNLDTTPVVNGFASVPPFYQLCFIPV
# Sequence of UniProt P34981 (P34981 whole entry, looked up): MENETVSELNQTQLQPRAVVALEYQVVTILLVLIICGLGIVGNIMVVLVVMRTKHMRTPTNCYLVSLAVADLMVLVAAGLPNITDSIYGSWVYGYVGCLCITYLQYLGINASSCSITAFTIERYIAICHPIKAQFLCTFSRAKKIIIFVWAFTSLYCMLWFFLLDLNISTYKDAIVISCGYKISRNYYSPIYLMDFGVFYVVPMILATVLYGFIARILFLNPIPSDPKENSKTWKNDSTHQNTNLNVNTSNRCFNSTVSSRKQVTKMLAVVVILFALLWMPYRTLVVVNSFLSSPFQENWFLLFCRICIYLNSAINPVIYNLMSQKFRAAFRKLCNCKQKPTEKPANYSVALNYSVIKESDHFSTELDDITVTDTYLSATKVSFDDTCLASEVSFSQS
# Sequence of UniProt P10635 (P10635 whole entry, looked up): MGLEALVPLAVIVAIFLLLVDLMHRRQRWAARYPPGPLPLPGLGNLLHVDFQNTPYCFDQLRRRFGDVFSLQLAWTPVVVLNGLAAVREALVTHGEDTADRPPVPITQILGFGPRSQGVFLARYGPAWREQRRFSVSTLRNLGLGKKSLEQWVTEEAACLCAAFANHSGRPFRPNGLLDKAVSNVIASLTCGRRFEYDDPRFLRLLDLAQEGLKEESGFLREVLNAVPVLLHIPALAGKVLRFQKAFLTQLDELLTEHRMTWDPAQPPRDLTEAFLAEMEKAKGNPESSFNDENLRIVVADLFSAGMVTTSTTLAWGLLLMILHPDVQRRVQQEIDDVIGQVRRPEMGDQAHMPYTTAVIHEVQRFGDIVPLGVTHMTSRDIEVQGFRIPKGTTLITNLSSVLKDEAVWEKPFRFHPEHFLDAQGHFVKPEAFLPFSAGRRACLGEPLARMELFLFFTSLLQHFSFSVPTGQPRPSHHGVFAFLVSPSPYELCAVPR
# Sequence of UniProt O75469 (O75469 whole entry, looked up): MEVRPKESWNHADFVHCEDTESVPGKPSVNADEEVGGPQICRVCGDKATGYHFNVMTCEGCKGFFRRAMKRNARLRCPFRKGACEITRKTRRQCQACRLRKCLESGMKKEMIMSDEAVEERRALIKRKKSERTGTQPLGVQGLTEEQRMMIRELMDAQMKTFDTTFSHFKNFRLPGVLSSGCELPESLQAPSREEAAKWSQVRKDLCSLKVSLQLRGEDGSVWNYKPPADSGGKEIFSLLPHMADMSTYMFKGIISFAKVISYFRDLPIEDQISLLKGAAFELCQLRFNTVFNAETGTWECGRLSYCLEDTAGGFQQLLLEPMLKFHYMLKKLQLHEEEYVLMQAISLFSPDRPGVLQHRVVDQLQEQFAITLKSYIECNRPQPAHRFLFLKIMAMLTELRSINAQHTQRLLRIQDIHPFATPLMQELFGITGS
compound,measurement,setting,value
CCC(C)(CCC(C)C)C(=O)[O-].CCC(C)(CCC(C)C)C(=O)[O-].[Zn+2] (stereo unspecified),Potency,[1],"inconclusive: 38.9 µM [cytotoxic, partial curve, poor fit]"
same,Potency,[2],inactive
same,"activity, negative = inhibition",[3],inconclusive: -39%
same,Potency,[4],"inconclusive: 61.1 µM [activator, single point]"
CC(C)N(C)C,Potency,[1],"inconclusive: 5.47 µM [cytotoxic, single point]"
same,"activity, negative = inhibition",[3],inconclusive: -10.6%
same,Potency,[5],inactive
CC1C(C)(C)C2=C(C(=O)CCC2)C1(C)C (stereo unspecified),Potency,[2],inactive
CC(C)COC(=O)C(C)C,Potency,[6],"inconclusive: 27.3 µM [rising, single point]"
same,Potency,[7],"inconclusive: 71 µM [inhibitor, partial curve]"
COc1cc(C(=S)N2CCOCC2)cc(OC)c1OC,Potency,[2],inactive
O=C(CS)Nc1ccccc1,Potency,[2],inactive
CC(C)(C)NC(N)=O,Potency,[6],inactive
same,Potency,[8],active: 71 µM
CC(C)c1ccccc1O,Potency,[6],inactive
same,Potency,[7],"inconclusive: 71 µM [inhibitor, partial curve, poor fit]"
NC(=O)c1cnccn1,Potency,[1],"inconclusive: 5.42 µM [cytotoxic, single point]"
same,"activity, negative = inhibition",[3],inconclusive: 8.02%
O=C(NC(Cc1cc(=O)[nH]c2ccccc12)C(=O)O)c1ccc(Cl)cc1 (stereo unspecified),Potency,[6],inactive
same,Potency,[8],inactive
CCOC(=O)O[C@]1(C(=O)OCCl)CC[C@H]2[C@@H]3CCC4=CC(=O)C=C[C@]4(C)[C@H]3[C@@H](O)C[C@@]21C,Potency,[2],"inconclusive: 12 µM [rising, partial curve]"
same,"activity, negative = inhibition",[3],inconclusive: -8.16% [at 35.3 µM]
CCCCCCCCCCCCCCC(=O)O,Potency,[1],"inconclusive: 49.1 µM [rising, single point]"
same,Potency,[8],"inconclusive: 79.9 µM [inhibitor, single point]"
same,Potency,[7],inactive
CC(C)COC(=O)CC(C(=O)OCC(C)C)S(=O)(=O)O (stereo unspecified),Potency,[1],inactive
O=C(O)c1cccc(C(=O)O)c1C(=O)O,Potency,[6],active: 34.7 µM
same,Potency,[7],inactive
O=C(O)c1cccc(Oc2ccccc2)c1,Potency,[2],"inconclusive: 38.9 µM [rising, partial curve]"
same,"activity, negative = inhibition",[3],inconclusive: 6.4%
same,Potency,[9],"inconclusive: 68.6 µM [rising, partial curve, poor fit]"
same,Potency,[7],"inconclusive: 79.6 µM [inhibitor, single point]"
CCCCCCCCCCCSCC(=O)O,Potency,[6],active: 21.7 µM
same,Potency,[8],"inconclusive: 89.4 µM [inhibitor, single point]"
same,Potency,[7],active: 71 µM
CCN(CC)c1ccc2c(c1)Oc1cc(N(CC)CC)ccc1C21OC(=O)c2ccccc21,Potency,[2],inactive
same,Potency,[10],active: 15.1 µM
same,Potency,[11],"inconclusive: 17.4 µM [inhibitor, partial curve]"
same,Potency,[7],active: 15.5 µM
O=C(O)COc1ccc2ccccc2c1,Potency,[2],"inconclusive: 21.9 µM [rising, partial curve]"
same,Potency,[12],inactive
same,Potency,[9],"inconclusive: 12.2 µM [rising, partial curve]"
same,Potency,[7],"inconclusive: 71 µM [inhibitor, partial curve, poor fit]"
C[C@@H](O)[C@H]1C(=O)N2C(C(=O)O)=C(S[C@@H]3CN[C@H](C(=O)N(C)C)C3)[C@H](C)[C@H]12,Potency,[2],inactive
CC(C(=O)O)c1ccc2c(c1)Cc1cccnc1O2 (stereo unspecified),Potency,[2],"inconclusive: 23.9 µM [rising, single point]"
same,Potency,[3],"inconclusive: 23.9 µM [fluorescent, partial curve, poor fit]"
same,Potency,[5],inactive
same,Potency,[7],inactive
CCc1ccc(C)cc1,Potency,[1],inactive
CCOc1ncc(F)c(=O)[nH]1,Potency,[6],"inconclusive: 33.5 µM [rising, single point]"
same,Potency,[7],inactive
O=c1[nH]cnc2c1ncn2[C@H]1CC[C@@H](CO)O1,Potency,[6],inactive
same,Potency,[8],"inconclusive: 48.2 µM [inhibitor, full curve] and inactive"
NC(=O)c1ccccc1C(N)=O,Potency,[6],"inconclusive: 68.9 µM [cytotoxic, single point]"
same,Potency,[11],active: 40.1 µM
same,Potency,[7],"inconclusive: 63.5 µM [inhibitor, partial curve]"
C[N+]1(C)CCC(=C(c2ccccc2)c2ccccc2)CC1,Potency,[1],inactive
same,Potency,[8],inactive
CC1(C)CC(N=C=O)CC(C)(CN=C=O)C1 (stereo unspecified),Potency,[6],"inconclusive: 27.3 µM [rising, single point]"
same,Potency,[8],active: 18.1 µM and inactive
same,Potency,[7],"inconclusive: 36.1 µM [inhibitor, full curve, poor fit] and inconclusive: 50.2 µM [inhibitor, partial curve, poor fit]"
